Test results from the supplement of paper PMC3334620.
Whole data set: some 33,000 sequences, median “E-score (-0.5 to 0.5)” near -0.035, cut for the highest 2% near 0.35. The list shows a part of the results.

Molecular target: T1, Pdr3 (UniProt P33200)
T1 sequence: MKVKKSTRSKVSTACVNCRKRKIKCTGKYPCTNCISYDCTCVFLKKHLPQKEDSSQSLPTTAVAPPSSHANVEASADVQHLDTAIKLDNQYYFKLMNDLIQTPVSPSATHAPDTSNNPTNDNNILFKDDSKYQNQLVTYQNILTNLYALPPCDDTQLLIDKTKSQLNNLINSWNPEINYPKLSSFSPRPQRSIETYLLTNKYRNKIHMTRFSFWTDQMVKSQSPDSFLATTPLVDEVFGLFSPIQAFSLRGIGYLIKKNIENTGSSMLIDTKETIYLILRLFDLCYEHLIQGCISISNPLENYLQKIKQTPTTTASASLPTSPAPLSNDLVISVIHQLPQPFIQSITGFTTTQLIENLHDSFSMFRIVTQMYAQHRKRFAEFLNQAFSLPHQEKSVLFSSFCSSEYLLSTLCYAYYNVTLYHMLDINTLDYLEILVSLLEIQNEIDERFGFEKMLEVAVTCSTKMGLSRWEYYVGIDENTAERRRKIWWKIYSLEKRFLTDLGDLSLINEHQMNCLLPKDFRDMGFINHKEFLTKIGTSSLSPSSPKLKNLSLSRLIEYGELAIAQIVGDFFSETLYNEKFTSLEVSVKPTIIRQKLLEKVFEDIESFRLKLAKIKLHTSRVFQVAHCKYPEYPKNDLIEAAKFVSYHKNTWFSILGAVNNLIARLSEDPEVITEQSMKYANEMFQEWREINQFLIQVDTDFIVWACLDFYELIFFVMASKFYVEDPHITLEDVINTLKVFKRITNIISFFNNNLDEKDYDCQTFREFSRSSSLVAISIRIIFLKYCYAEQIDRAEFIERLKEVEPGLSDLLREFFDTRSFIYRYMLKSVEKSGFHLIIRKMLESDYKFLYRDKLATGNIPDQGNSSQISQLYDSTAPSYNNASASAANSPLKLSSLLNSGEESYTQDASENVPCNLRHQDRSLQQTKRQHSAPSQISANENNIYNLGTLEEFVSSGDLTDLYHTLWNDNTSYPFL
Test: PBM E-score (8-mer binding enrichment) (E-score (-0.5 to 0.5)); higher = stronger / more preferred TF binding; most listed sequences are background and not binding sites
Conditions: protein concentration: 200 nM; construct: GST-full length
Outline: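 Yeast transcription factors carrying a GST tag, as full-length proteins or DNA-binding domains, were produced by PURExpress in vitro transcription/translation. About 100-200 nM protein was applied to universal all-10-mer Agilent arrays, double-stranded by primer extension on fresh or once-stripped slides. Bound protein was detected with fluorescent anti-GST, and scans were normalised with masliner. The Universal PBM Analysis Suite gave each ungapped eight-base word, pooled with its reverse complement, an E-score, a modified Wilcoxon-Mann-Whitney statistic.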

Sequence	PBM E-score
AGAGGCCG	-0.105
ATATAAAA	0.0558
CCGGCACA	0.305
ACGGTTTA	-0.0434
ACTTATCT	-0.0989
GCAAGTGC	-0.246
AACCCTAA	-0.101
ATAGAAGG	-0.00629
AGCCCCTG	-0.279
AGTGCCCG	0.117
CTGCGCTC	-0.181
ACGCGTCT	-0.126
GACGTCAA	-0.155
AGATTTTC	-0.0096
CGTCAGAC	-0.0654
AACGGCGC	0.174
GTCTTTTA	-0.192
CGTCCGAA	0.208
CACGGCAG	0.141
AACGTAAA	-0.0445
ATGATGTG	0.0436
ATAGGTCC	0.153

Sequence	PBM E-score
CTACAGCC	-0.129
CTAGGAAC	-0.0409
AAAACTGC	-0.0767
AACCGTTG	0.00312
CGTGGACA	0.108
ACGGTCGA	0.0411
CGCATGCG	0.0897
ACAGGGCC	0.0906
GCACGGGC	0.105
ATCTTTTA	-0.0573
AAAGCCGT	0.0407
CTGAATGA	-0.00634
CTGGATTC	0.105
ACTTCCTC	-0.167
CAGCCCTG	-0.246
AAGACAAA	-0.103
CAGCGGAC	0.176
TAAAGGTA	-0.168
CTTTGATC	-0.0821
CACTAAAG	-0.151
ATACCTCA	-0.0978
ATTACAAC	-0.0764

Sequence	PBM E-score
CGCAACAG	0.0606
CCCACTTA	-0.0239
CCAGATCG	-0.0299
ATTTTCAA	-0.0356
ACATAGAA	0.0158
AGCTGCCA	-0.00127
CAAACTAC	-0.156
GCTCCCAC	-0.0728
CGTTCCGC	0.453
CAACTGTA	-0.119
CCACTTCG	0.0645
ATTGTTTC	0.246
ATGTCAGG	-0.127
CCCGAGGA	0.156
CACCTAAC	-0.0279
CTGGTTTA	-0.265
TCTCGACA	-0.0593
AGTACACA	0.0616
GCTTTCGA	-0.151
CAGCTACC	-0.0514
ATTGCTCA	-0.0859
CAATCCGG	0.394

Sequence	PBM E-score
ATTTGCTC	0.00972
AGATTGTG	-0.152
CGACGCAG	-0.0882
TCCCGTAA	0.0877
AGAGAAAG	-0.168
AACAGCTG	-0.14
AACTGCAC	-0.0261
GCTGAAGA	-0.106
ACAGGCGT	-0.281
ATCTTTAA	-0.0842
ACTTATAT	0.0781
AGGGGCGC	0.0517
AAGGAGCC	-0.14
AAACTTTC	-0.0276
CCATGCTC	-0.114
CTCTGTGC	-0.0885
CAAAAGAA	0.0442
CAAGATTA	0.0526
CTTGTCTC	-0.0638
AAAGCCCC	-0.0366
